Reference: the supplement of paper PMC4604168 (melanoma cell lines)
Some of the results follow. Single values are uncertain, as repeats are few or missing.

test system: MEL-HO; assay: cell count relative to DMSO control; melanoma cells; higher = more viable cells; settings: library dose: low library concentration; 72 h
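Note: cell number obtained by counting DAPI-stained nuclei in high-throughput microscope images with image analysis software, screen run in 1,536-well plates.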

Row | SMILES | cell count [%]
1 | O=c1[nH]nc(Sc2ncc([N+](=O)[O-])s2)n1-c1ccc2c(c1)OCCO2 + Cc1cn(-c2cc(NC(=O)c3ccc(C)c(Nc4nccc(-c5cccnc5)n4)c3)cc(C(F)(F)F)c2)cn1 [nilotinib] (first compound 0.2 µM, partner dose 0.2 µM) | 119
2 | O=c1[nH]nc(Sc2ncc([N+](=O)[O-])s2)n1-c1ccc2c(c1)OCCO2 + CC(C)C[C@H](NC(=O)[C@H](Cc1ccccc1)NC(=O)c1cnccn1)B(O)O [Bortezomib] (first compound 0.2 µM, partner dose 0.001 µM) | 99.1
3 | O=c1[nH]nc(Sc2ncc([N+](=O)[O-])s2)n1-c1ccc2c(c1)OCCO2 + Cc1nc(Nc2ncc(C(=O)Nc3c(C)cccc3Cl)s2)cc(N2CCN(CCO)CC2)n1 [dasatanib] (first compound 0.2 µM, partner dose 0.004 µM) | 83.8
4 | O=C(O)c1ccc(-c2c[nH]c3ncc(-c4ccccc4)cc23)cc1C1CCCC1 + Oc1nc(-c2ccc(C(F)(F)F)cc2)nc2c1CSCC2 [XAV939] (first compound 0.16 µM, partner dose 2 µM) | 88.5
5 | CC1(C)NC(=O)N(c2ccc([N+](=O)[O-])c(C(F)(F)F)c2)C1=O [nilutamide] + CCN(CC)CCCCNc1ncc2cc(-c3cc(OC)cc(OC)c3)c(NC(=O)NC(C)(C)C)nc2n1 [PD173074] (first compound 1 µM, partner dose 0.1 µM) | 85.6
6 | Cn1cncc1[C@@](N)(c1ccc(Cl)cc1)c1ccc2c(c1)c(-c1cccc(Cl)c1)cc(=O)n2C [tipifarnib] + c1cc(-c2cnn3cc(-c4ccc(OCCN5CCCCC5)cc4)cnc23)ccn1 [Dorsomorphin] (first compound 0.01 µM, partner dose 0.4 µM) | 91
7 | C[C@@H]1CCN(C(=O)CC#N)C[C@@H]1N(C)c1ncnc2[nH]ccc12 + COc1cc(N2CCC(N3CCN(C)CC3)CC2)ccc1Nc1ncc(Cl)c(Nc2ccccc2S(=O)(=O)C(C)C)n1 [NVP-TAE684] (first compound 1 µM, partner dose 0.08 µM) | 81.3
8 | O=C(O)c1ccc(-c2c[nH]c3ncc(-c4ccccc4)cc23)cc1C1CCCC1 + Oc1cc(-c2nc(-c3ccccc3)[nH]c2-c2ccncc2)ccc1Cl [L779450] (first compound 0.16 µM, partner dose 0.2 µM) | 95
9 | COc1cc(Nc2ncc(F)c(Nc3ccc4c(n3)NC(=O)C(C)(C)O4)n2)cc(OC)c1OC [Tamatinib] + COc1ccc2c(c1)CCC1C2CCC2(C)C(NCCCCCCN3C(=O)C=CC3=O)CCC12 [U73122] (first compound 0.4 µM, partner dose 0.4 µM) | 91.9
10 | C[C@@H]1CCN(C(=O)CC#N)C[C@@H]1N(C)c1ncnc2[nH]ccc12 + O=S(=O)(c1ccccc1)N(CC(F)(F)F)c1ccc(C(O)(C(F)(F)F)C(F)(F)F)cc1 [T0901317] (first compound 1 µM, partner dose 1.4 µM) | 112
11 | O=c1[nH]nc(Sc2ncc([N+](=O)[O-])s2)n1-c1ccc2c(c1)OCCO2 + COc1ccc(C2=N[C@@H](c3ccc(Cl)cc3)[C@@H](c3ccc(Cl)cc3)N2C(=O)N2CCNC(=O)C2)c(OC(C)C)c1 [Nutlin-3] (first compound 0.2 µM, partner dose 0.1 µM) | 105
12 | CC1(C)NC(=O)N(c2ccc([N+](=O)[O-])c(C(F)(F)F)c2)C1=O [nilutamide] + COc1cc(N2CCC(N3CCN(C)CC3)CC2)ccc1Nc1ncc(Cl)c(Nc2ccccc2S(=O)(=O)C(C)C)n1 [NVP-TAE684] (first compound 1 µM, partner dose 0.08 µM) | 99.4
